# Results: PubChem BioAssay AID686979 (National Center for Advancing Translational Sciences (NCATS), 2013)
# Among all 420,000 compounds or so, about 50,000 (12%) were called active. Inconclusive results, whose numbers are uncertain, are shown with a selection of clear calls. The call rests on the fitted dose curve; in most records, active means well fitted inhibition curve with a large enough effect; inconclusive means small, poorly fitted or top-dose-only effect; inactive means flat fitted curve, though single readings scatter. No potency is given beside an inconclusive call; the fits are too rough.
# Assay: qHTS for Inhibitors of human tyrosyl-DNA phosphodiesterase 1 (TDP1): qHTS in cells in presence of CPT; further: nearly all actives have a fitted effect of over 55% in size
# Details: chicken DT40 Tdp1-/-;hTDP1 cells + 20 nM CPT, ATP luminescence, 48 h; activity change, negative = growth inhibition: at 46.2 µM (top of the series)
# How it was run: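 Cell growth measured by CellTiter-Glo luminescence after a minimum 48 h, 37 C compound exposure with 20 nM CPT in Tdp1-knockout DT40 cells stably expressing hTDP1, seeded 400/well; qHTS titration format.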
# On the % scale 0 is the no-effect control and ±100 the full control effect; potency means the concentration at half of the fitted maximal effect; tags describe the fitted curve by direction and shape.
Compound,Potency,"activity change, negative = growth inhibition"
COc1cc(OC)c(NC(=O)Nc2ccc(OC)c(OC)c2)cc1Cl,inactive,–
CCc1cc2c(-c3ccccc3)cc(=O)oc2cc1OC(C)C(=O)NCC1CCC(C(=O)O)CC1 (stereo unspecified),"inconclusive [inhibitor, single point]",–
O=C(CCc1ccccc1)NNC(=O)c1ccc(NC(=O)c2ccccc2)cc1,inactive,–
CSCc1c(C(=O)NC2CCCc3ccccc32)oc2ccccc12 (stereo unspecified),"inconclusive [inhibitor, partial curve]",–
O=C(Cc1cccc(NC(=O)C2CCN(C(=O)c3ccccc3)CC2)c1)Nc1cccc(C(=O)N2CCCCC2)c1,inactive,–
COc1cccc(Cn2c(=O)c3[nH]cnc3n(-c3ccccc3C)c2=O)c1,inactive,–
Cc1nccn1CC1CCc2c(c3ccccc3n2C)C1=O (stereo unspecified),–,inconclusive: -32.9% [inhibitor]
Cc1cc(C)cc(OCC(=O)Nc2ccc(N3CCOCC3)cc2N2CCOCC2)c1,active: 20.6 µM,–
O=C1Nc2ccc(Br)cc2/C1=C/C1CC=CCC1 (stereo unspecified),active: 18.4 µM,–
CC(C)(C)OC(=O)N1CCC(CC2CC(c3ccccc3)=NO2)(C(=O)NCc2ccccc2)CC1 (stereo unspecified),"inconclusive [inhibitor, single point]",–
COc1ccc2nc(C(c3ccc(C)cc3)n3c(-c4ccccc4Br)nc4ccccc43)[nH]c2c1 (stereo unspecified),"inconclusive [inhibitor, single point]",–
COc1cc(CNCCSc2nnnn2C)ccc1OCc1ccc(Cl)cc1Cl,active: 16.4 µM,–
C=CCOc1ccccc1CN1CCC(Oc2cc(C(=O)NC3CC3)ccc2OC)CC1,"inconclusive [inhibitor, single point]",–
O=[N+]([O-])c1cc(S(=O)(=O)Nc2ccccc2)ccc1Nc1ccccc1,"inconclusive [inhibitor, single point]",–
CCCn1c(=O)n(C)c(=O)c2c(SCC(=O)NCC(c3ccccc3)N(C)C)nc(CC(C)C)nc21 (stereo unspecified),active: 20.6 µM,–
CC(C)(C)NC(=O)CSc1ncnc2c1cnn2-c1ccccc1,"inconclusive [inhibitor, single point]",–
NC(=O)c1cc[n+](CC2=C(C(=O)[O-])N3C(=O)[C@@H](NC(=O)Cc4cccs4)[C@H]3SC2)cc1,inactive,–
O=C(NC1CCCCC1)C(c1ccco1)N(C(=O)c1csnn1)c1cccc(F)c1 (stereo unspecified),"inconclusive [inhibitor, partial curve, poor fit]",–
CN1C(=O)N(C)C2(c3ccccc3)Nn3c(s/c(=C/c4ccccc4)c3=O)=NC12c1ccccc1 (stereo unspecified),"inconclusive [inhibitor, single point]",–
CC(=O)N1CCc2cc(S(=O)(=O)NC3CCCc4ccccc43)ccc21 (stereo unspecified),active: 12.6 µM,–
CC1CCCN(C(=O)CN2C(=O)C(C)Oc3ccccc32)C1 (stereo unspecified),inactive,–
CCN(C(=O)CSc1nc2ccccc2nc1Cc1ccc(F)cc1)c1cccc(C)c1,"inconclusive [inhibitor, single point]",–

Compound,Potency,"activity change, negative = growth inhibition"
CN(CCc1ccccc1)C(=O)c1cccc(NC(=O)Cc2cccc(NC(=O)C3CCCN(C(=O)C4CC4)C3)c2)c1 (stereo unspecified),"inconclusive [inhibitor, single point]",–
Cc1ccnc(SCC(=O)c2ccc([N+](=O)[O-])cc2)n1,inactive,–
CC(C)CC(C(=O)NCC1CCN(Cc2ccc(F)cc2)CC1)N1Cc2ccccc2C1=O (stereo unspecified),active: 23.1 µM,–
COc1ccc(NC(=O)C2CCC(CNS(=O)(=O)c3ccc(Br)s3)CC2)c(OC)c1 (stereo unspecified),active: 18.4 µM,–
COc1cccc(N(C(=O)CNC(=O)c2ccco2)C(C(=O)NC2CCCC2)c2ccco2)c1 (stereo unspecified),inactive,–
Cc1ccccc1-n1ncc2c1CC(C)(C)CC2NC(=O)C1=CC(=O)CC(C)(C)O1 (stereo unspecified),"inconclusive [inhibitor, single point]",–
CC(C)=CCC/C(C)=C/CNC(=O)CC1C[C@H](C(=O)N2CCOCC2)[C@@]2(C)c3[nH]c4ccccc4c3CCN2C1=O (stereo partly specified),active: 13 µM,–
C#CCn1c(=NC(=O)CN2C(=O)CCC2=O)sc2cccc(OC)c21,inactive,–
CCc1ccc(NC(=O)Cn2cc(S(=O)(=O)c3ccc(F)cc3)c(=O)c3cc(OC)ccc32)cc1,"inconclusive [inhibitor, single point]",–
O=C(CCN1C(=O)C2C3C=CC(C4CC34)C2C1=O)Nc1ccc(Cl)cc1O (stereo unspecified),inactive,–
CC(=O)NN1C(=O)c2ccccc2NC1c1ccccc1O (stereo unspecified),inactive,–
CC(=O)c1ccc(-c2cccc(-c3cc(=O)oc4ccc(C(C)(C)C)cc34)c2)cc1,"inconclusive [inhibitor, single point]",–
Cc1cc(C(=O)Nc2ccc(Cl)cc2)n(-c2ccccc2)n1,"inconclusive [inhibitor, single point]",–
O=C(O)c1ccc2c(c1)N(Cc1ccccc1)C(=O)c1ccccc1S2=O (stereo unspecified),"inconclusive [inhibitor, single point]",–
CC(=O)Nc1ccc(-c2csc(NNC(=O)c3ccc(C)cc3)n2)cc1,active: 13 µM,–
O=S(=O)(c1ccc2c(c1)CCCN2)N1CCCCC1,inactive,–
Nc1c(S(=O)(=O)c2cccs2)c2nc3ccccc3nc2n1Cc1ccc2c(c1)OCO2,"inconclusive [inhibitor, single point]",–
Cc1ccccc1C(=O)N1c2ncnn2C2(CCCCC2)[C@@H]2CCCC[C@@H]21,"inconclusive [inhibitor, partial curve]",–
Cc1nc(/N=C(\N)N(C)C)[nH]c(=O)c1C,inactive,–
CC(=O)N1CCc2cc(S(=O)(=O)N3CCc4ccccc4C3)ccc21,–,inconclusive: -33.7% [inhibitor]
CCc1nc(-c2ccc(C)c(S(=O)(=O)N3CCN(c4ccc(C(C)=O)cc4)CC3)c2)no1,active: 13 µM,–
CC(C)N1C(=O)c2ccccc2NC(=O)C1C(=O)NCc1cccc(C(F)(F)F)c1 (stereo unspecified),"inconclusive [inhibitor, partial curve, poor fit]",–

Compound,Potency,"activity change, negative = growth inhibition"
COc1ccc(-n2nnnc2SCc2nc(N)nc(N3CCOCC3)n2)cc1,"inconclusive [inhibitor, single point]",–
CC(C)C1C(=O)N(Cc2cn(CC3CCCCC3)nn2)CCS(=O)(=O)N1Cc1ccc(-c2ccc(F)nc2)cc1 (stereo unspecified),"inconclusive [inhibitor, single point]",–
O=C1Cc2ccccc2C(c2ccc(Br)cc2)N1 (stereo unspecified),"inconclusive [inhibitor, partial curve, poor fit]",–
CCn1cc(C(=O)N2CCN(c3cc(Cl)ccc3C)CC2)c(=O)c2cc(S(=O)(=O)N3CCCCC3)ccc21,–,inconclusive: -38.4% [inhibitor]
N#Cc1ccc(N2Cc3ccccc3/C2=N/C(=O)Nc2ccc(Cl)cc2)cc1,"inconclusive [inhibitor, single point]",–
Cc1cccc(C(=O)Nc2nnc(COc3ccccc3)s2)c1,"inconclusive [inhibitor, single point]",–
CCN(CC)c1nc2c(c(=O)[nH]c(=O)n2C)n1CCCc1ccccc1,"inconclusive [inhibitor, single point]",–
CC(C)Nc1nc2c(-c3cccc(Br)c3)nnn2c2ccccc12,"inconclusive [inhibitor, partial curve]",–
COC(=O)C1=C(C)N(C(C)C)C(=O)C1(NC(=O)c1ccc(C(C)(C)C)cc1)C(F)(F)F (stereo unspecified),"inconclusive [inhibitor, single point]",–
CCOc1ccccc1NC(=O)C1CCN(S(C)(=O)=O)CC1,"inconclusive [inhibitor, single point]",–
C/C(=N\OCC(=O)N/N=C/c1ccc(C)cc1O)c1cccs1,active: 4.61 µM,–
Cc1ccc(S(=O)(=O)CCC(=O)OCC(=O)Nc2cc(S(=O)(=O)N3CCOCC3)ccc2C)cc1,"inconclusive [inhibitor, partial curve]",–
COC(=O)[C@@]12C[C@@H](CC(=O)N3CCC(c4ccccc4)CC3)C(=O)N(CCc3ccc(OC)c(OC)c3)C1=CCC(C)(C)C2,"inconclusive [inhibitor, single point]",–
CC(C)CC(COCc1ccc(Cl)cc1)N1CCN(C(=O)c2ccc(Cl)cc2Cl)CCC1=O (stereo unspecified),active: 23.1 µM,–
O=C(COC(=O)c1ccc(F)c([N+](=O)[O-])c1)NC(=O)NCc1ccccc1,active: 20.6 µM,–
COc1ccc(/C=N/NC(=O)CCCOc2ccc(Cl)cc2Cl)cc1[N+](=O)[O-],"inconclusive [inhibitor, single point]",–
O=C(/C=C/[C@H]1O[C@@H](n2cnc3c(NC(=O)c4ccccc4)ncnc32)[C@H](O)[C@@H]1O)NCCCc1ccccc1,inactive,–
CCOCCCNC(=O)c1ccc2nc(-c3ccc(OC)c(OC)c3)c(-c3ccc(OC)c(OC)c3)nc2c1,"inconclusive [inhibitor, single point]",–
CCOc1ccc(C(=O)Nc2ccc(-n3nncc3-c3ccc(OC)cc3)cc2)cc1,"inconclusive [inhibitor, single point]",–
CC(=O)NC[C@H]1CN(c2ccc(N3CCOCC3)c(F)c2)C(=O)O1,"inconclusive [inhibitor, single point]",–
Cc1ccc(C(=O)c2ccccc2C(=O)OCC(=O)NCCc2ccccc2)cc1,"inconclusive [inhibitor, single point]",–
COc1ccc(C(C)(C)C)cc1NC(=O)CSc1ncn[nH]1,inactive,–
